Measured values taken from the supplement of paper PMC12423691.
Some of the results follow. Binding of human transcription factors and regulators to the viral nucleoprotein by AlphaScreen, crude cell-free proteins, amounts not normalised, one pass. Fold of the Venus control; higher = more signal. No active / inactive call. Single-pass screen; sequences are the whole Swiss-Prot entries looked up by name.

These substances were tested on nucleoprotein N of Crimean-Congo hemorrhagic fever virus (assay: AlphaScreen luminescence signal relative to Venus negative control (fold); higher = stronger binding to CCHFV N).
Experimental: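 AlphaScreen binding of cell-free made, FLAG-GST-tagged human transcription factors and regulators (crude translation products) to biotinylated N protein; signal as fold of the FLAG-GST-Venus control. One pass.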

Substance | AlphaScreen luminescence signal
ZKSCAN7, Q9P0L1 | 1.53
ZIM3, Q96PE6 | 2.14
HOXB8, P17481 | 5.12
ZNF571, Q7Z3V5 | 2.88
ZNF397, Q8NF99 | 1.35
ZNF623, O75123 | 2.7
MEOX1, P50221 | 2.84
ST18, O60284 | 2.28
SOX5, P35711 | 2.79
ZKSCAN1, P17029 | 2.79
ZNF418, Q8TF45 | 3.12
ZNF263, O14978 | 2.42
MZF1, P28698 | 1.44
OTX2, P32243 | 2.51
ARNT, P27540 | 2.56
HOXC6, P09630 | 7.86
ZNF649, Q9BS31 | 2.56
ZNF135, P52742 | 2.09
PRDM1, O75626 | 2.84
MYT1L, Q9UL68 | 2.09
ZSCAN22, P10073 | 1.3
NHLH1, Q02575 | 2.37
ZNF154, Q13106 | 2.42
ZNF500, O60304 | 2
PITX3, O75364 | 2.37
ZNF480, Q8WV37 | 2.6

Substance | AlphaScreen luminescence signal
ZNF292, O60281 | 1.53
ZNF92, Q03936 | 6.88
ZNF549, Q6P9A3 | 3.58
ZNF227, Q86WZ6 | 1.77
ZFP69B, Q9UJL9 | 1.81
ZNF224, Q9NZL3 | 2.6
ZFHX3, Q15911 | 2.14
ZNF792, Q3KQV3 | 1.16
HIF3A, Q9Y2N7 | 3.72
PLA2G1B, P04054 | 2.56
CIR1, Q86X95 | 4.51
NEUROD6, Q96NK8 | 2.51
ZIM2, Q9NZV7 | 1.91
ZNF45, Q02386 | 3.86
ZSCAN2, Q7Z7L9 | 0.884
ZNF431, Q8TF32 | 2.51
ZNF37A, P17032 | 3.26
WT1, P19544 | 1.63
NKX3-2, P78367 | 1.95
ALX4, Q9H161 | 4.33
ZNF548, Q8NEK5 | 2.74
ZNF629, Q9UEG4 | 1.72
SOX17, Q9H6I2 | 2.93
ZNF133, P52736 | 2.37
DMRT1, Q9Y5R6 | 3.21
ZNF140, P52738 | 3.81

Substance | AlphaScreen luminescence signal
ZIK1, Q3SY52 | 2.6
HOXA4, Q00056 | 1.21
DMRTC2, Q8IXT2 | 1.53
ZNF24, P17028 | 1.67
HOXD13, P35453 | 2.37
PHOX2A, O14813 | 2.7
KLF12, Q9Y4X4 | 4.79
GATA3, P23771 | 2.84
MSRB2, Q9Y3D2 | 4.05
SHOX, O15266 | 1.91
PRKCB, P05771 | 2.74
GATA4, P43694 | 2
ZNF23, P17027 | 1.35
SOX11, P35716 | 8.6
HOXB7, P09629 | 4.88
TAF6, P49848 | 2.28
HOXD4, P09016 | 3.72
TFAP2D, Q7Z6R9 | 3.49
PDX1, P52945 | 4.37
ZNF415, Q09FC8 | 1.44
ZNF3, P17036 | 2.05
ZNF641, Q96N77 | 3.63
ZNF132, P52740 | 2.47
NRL, P54845 | 3.72
ZNF773, Q6PK81 | 2
ZNF197, O14709 | 3.16

Substance | AlphaScreen luminescence signal
ZNF726, A6NNF4 | 2.23
DLX3, O60479 | 2.93
MECOM, Q03112 | 1.49
ZFP3, Q96NJ6 | 1.63
HOXD10, P28358 | 2.98
BACH2, Q9BYV9 | 1.16
BMP7, P18075 | 2.28
EDA, Q92838 | 3.81
ZNF311, Q5JNZ3 | 3.26
DMBX1, Q8NFW5 | 3.02
ZNF540, Q8NDQ6 | 5.35
ETV5, P41161 | 3.3
DLX6, P56179 | 7.58
ZNF286A, Q9HBT8 | 3.49
ZNF880, Q6PDB4 | 1.58
ZSCAN30, Q86W11 | 1.72
RBPJ, Q06330 | 3.49
DLX5, P56178 | 2.84
NHLH2, Q02577 | 2.19
ZNF420, Q8TAQ5 | 2.33
PAX8, Q06710 | 2.93
ZNF8, P17098 | 2.19
MAFB, Q9Y5Q3 | 5.12
TAF10, Q12962 | 1.12
ZNF383, Q8NA42 | 2.05
ZNF490, Q9ULM2 | 2.42

Substance | AlphaScreen luminescence signal
GATA1, P15976 | 2.56
OTX1, P32242 | 1.4
ZNF189, O75820 | 1.26
ZNF454, Q8N9F8 | 1.95
ZNF808, Q8N4W9 | 1.26
EGR2, P11161 | 3.3
ZNF256, Q9Y2P7 | 3.63
ZNF267, Q14586 | 1.44
ZNF2, Q9BSG1 | 1.77
ZNF350, Q9GZX5 | 2.33
KLF2, Q9Y5W3 | 5.35
NCOR1, O75376 | 1.81
ELF4, Q99607 | 4.14
LHX6, Q9UPM6 | 1.35
KLF15, Q9UIH9 | 6.65
KLF1, Q13351 | 4.05
ZNF317, Q96PQ6 | 1.95
KLF9, Q13886 | 2.47
SOX21, Q9Y651 | 1.77
YBX3, P16989 | 3.02
ZNF211, Q13398 | 2.09
HOXD9, P28356 | 4.37
ZFP37, Q9Y6Q3 | 3.91
MAFK, O60675 | 2.19
MSX1, P28360 | 2.05
